Results as given in the RNAGym collection of RNA variant scans (doi:10.1101/gad.245936.114).
Variants at the background level are over-represented here.

B1: tRNA (parent)
chain: CUCUCGGUAGCCAAGUUGGUUUAAGGCGCAAGACUUUAAUUUAUCACUACGAAAUCUUGAGAUCGGGCGUUCGACUCGCCCCCGGGAGAUUUUUUCCUCGAGCAA

Variants of: B1
Assay: nonsense suppression (GFP-seq) (ratio to wild type); higher = more function; SUP4oc tRNA, yeast GFP reporter sort-seq
Procedure, shortened: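 Nonsense suppression (GFPSEQ) is the median GFP/RFP ratio of each sorting bin, weighted by the variant's estimated share of cells in that bin and expressed relative to the unmutated parent tRNA. Yeast strains carried genome-integrated variants of an ochre-suppressor tRNA from a library with ~3% random mutations, plus a galactose-driven GFP ochre reporter and RFP, and were grown in raffinose/galactose medium containing 80 mg/L adenine. Cells were sorted into GFP/RFP bins, each bin was Illumina-sequenced (phred ≥30), and variants were kept only with ≥100 reads and ≥30 cells.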

Question: Which nonsense suppression does the source give for CUCUCGGUAGCCCAGUUGGUUUAAGGAGCAAGACUUUAAUUUAUCACUACGAAAUCUUGACAUCGGGCGUUCGAGUCGCCCCCGGGAGAUUUUUUCCUCGAGCAA [A13C C27A G61C C75G] here?
Answer: ≤ 0.026

Question: With CUCUCGGUAGCCCAGUUUGUUUAAGGCGCAAGACUUUAAUUUAUCACUACGAAAUCUUGAGAUCGGGCGUUCGACUCGCCACCGGGAGAUUUUUUCCUCGAGCAA [A13C G18U C81A] as the variant, how does the nonsense suppression read?
Answer: ≤ 0.026

Question: With CUCUCGGUAGCCCAGUUGGUUUAAGGCGCAAGACUUUAAUUUAUCACUACGAAAUCUUGAGAUUGGGCGUUCGACUCGCCCCCGGGAGAUUUUUUCCUCGAGCAA [A13C C64U] as the variant, how does the nonsense suppression read?
Answer: 0.0428

Question: Which nonsense suppression does the source give for CUCUCGGUAGCCCAGUUGGUUUAAGGCGCAAGACUUUAAUUUAUCACUACGAAAUCUUGAGAUCGGGCGUUUGACUCGCCUCCGGGAGAUUUUUUCCUCGAGCAA [A13C C72U C81U] here?
Answer: ≤ 0.026

Question: Which nonsense suppression does the source give for CUCUCGGUAGCCCAGUUGGUUUAAGGCGCAAGUCUUUAAUUUAUCACUACGAAAUCUUGAGAUCGGGCGUUCGACUCGCCCGCGGGAGAUUUUUUCCUCGAGCAA [A13C A33U C82G] here?
Answer: ≤ 0.026

Question: Which nonsense suppression does the source give for CUCUCGGUAGCCCAGUUCGUUUAAGUCGCAAGACUUUAAUUUAUCACUACGAAAUCUUGACAUCGGGCGUUCGACUCGCCCCCGGGAGAUUUUUUCCUCGAGCAA [A13C G18C G26U G61C] here?
Answer: ≤ 0.026

Question: Which nonsense suppression does the source give for CUCUCGGUAGCCCAGUUGGUUUCAGGCGCAAGACUUUAAUUUAUCACUACGAAAUCUUGCGAUCGGGCGUUCGACUCGCCCGCGGGAGAUUUUUUCCUCGAGCAA [A13C A23C A60C C82G] here?
Answer: ≤ 0.026

Question: With CUCUCGGUAGCCCAGUUGGUUUAAGGGGCAAGACUUUAAUUUAUCACUACGAAAACUUGAGAUCGGGCGUUCGACUCGCCGCCGGGAGAUUUUUUCCUCGAGCAA [A13C C27G U55A C81G] as the variant, how does the nonsense suppression read?
Answer: ≤ 0.026

Question: Which nonsense suppression does the source give for CUCUCGGUAGCCCAGUUCGUUUAAGUCGCAAGACUUUAAUUUAUCACUACGAAAUCUUGAGAUCGGGCGUUCGACUCGCCCCCGGGAGAUUUUUUCCUCGAGCAA [A13C G18C G26U] here?
Answer: ≤ 0.026

Question: Which nonsense suppression does the source give for CUCUCGGUAGCCCAGUUGGUUUAAGGCGAAAGACUUUAAUUUAUCACUACGAAAUCUUGAGAUCGGGUGUUCGACUCGCCCCCGGGAGAUUUUUUCCUCGAGCAA [A13C C29A C68U] here?
Answer: ≤ 0.026

Question: For CUCUCGGUAGCCCAGUUGGUUUUAGGCGCGAGACUUUAAUUUAUCACUACGAAAUCUUGAGAUCGGGCGUUCGACUCGCCCCCGGGAGAUUUUUUCCUCGAGCAA [A13C A23U A30G], which nonsense suppression is on record?
Answer: ≤ 0.026

Question: For CUCUCGGUAGCCCAGUUGGUUUAACGCGCAAGACUUUAAUUUAUCACUACGAACUCUUGAGAUCGGGCGUUCGACUCGCCCCCGGGAGAUUUUUUCCUCGAGCAA [A13C G25C A54C], which nonsense suppression is on record?
Answer: ≤ 0.026

Question: With CUCUCGGUAGCCCAGUUGGUUUAAGGCGCAAGACUUUAAUUUAUCACUACGAAGUCUUGAGAUCGGGCGUUCCACUCGCCCCCGGGAGAUUUUUUCCUCGAGCAA [A13C A54G G73C] as the variant, how does the nonsense suppression read?
Answer: ≤ 0.026

Question: Which nonsense suppression does the source give for CUCUCGGUAGCCCAGUUGGUUUAAGGCGCAAGACUUUAAUUUAUCACUACGAAAUCUUGAGAUCGGGCGUUCGACUCGCCCCCGGGUGAUUUUUUCCUCGAGCAA [A13C A87U] here?
Answer: ≤ 0.026

Question: For CUCUCGGUAGCCCAGUUGGUUUAAGGCGCAAGACUUUAAUUUAUCACUACGAAAUCUUGAGAUCGGGCGUUCGACUCGCCCCCGGGGGAUUUUUUCCUCGAGCAA [A13C A87G], which nonsense suppression is on record?
Answer: 0.127

Question: With CUCUCGGUAGCCCAGUUGGUUUAAGUCGAAAGACUUUAAUUUAUCACUACGAAAUCUUGAGAUCGGGCGUUCGACUCGCCCCCGGGAGAUUUUUUCCUCGAGCAA [A13C G26U C29A] as the variant, how does the nonsense suppression read?
Answer: ≤ 0.026

Question: For CUCUCGGUAGCCCAGUUGGUUUAAGGCGUAAGACUUUAAUUUAUCACUACGAAAUCUUGAGAUCGGGCGUUCGACUCGCCCCCGGGAUAUUUUUUCCUCGAGCAA [A13C C29U G88U], which nonsense suppression is on record?
Answer: ≤ 0.026

Question: With CUCUCGGUAGCCCAGUUGGUUUAAGUCGCAAGACUUUAAUUUAUCACUACGAAAUCUUGAGAUCGGGCGUUCGACUCGCCCCCGGGAGUUUUUUUCCUCGAGCAA [A13C G26U A89U] as the variant, how does the nonsense suppression read?
Answer: ≤ 0.026

Question: For CUCUCGGUAGCCCAGUUGGUUUAAGGCGCAACACUUUAAUUUAUCACUACGAAAUCUUGAGAUCGGGCGUGCGCAUCGCCCCCGGGAGAUUUUUUCCUCGAGCAA [A13C G32C U71G A74C C75A], which nonsense suppression is on record?
Answer: ≤ 0.026

Question: For CUCUCGGUAGCCCAGUUGGUUUGAGGCGUAAGACUUUAAUUUAUCACUACGAAAUCUUGAGAUCGGGCGUUCGACUCGCCCCGGGGAGAUUUUUUCCUCGAGCAA [A13C A23G C29U C83G], which nonsense suppression is on record?
Answer: ≤ 0.026

Question: With CUCUCGGUAGCCCAGUUGGUUUAAGCCGCAAGACUUUAAUUUAUCACUACGAAAUCAUGAGAUCGGGCGUUCGACUCGCCCCCGGGAGAUUUUUUCCUCGAGCAA [A13C G26C U57A] as the variant, how does the nonsense suppression read?
Answer: ≤ 0.026

Question: With CUCUCGGUAGCCCUGUUGGUUUAAGGCGCAAGACUUUAAUUUAUCACUACGAAAUCUUGAGAUCGGGCGUUCGACUCGCCCCCGGGAGAUUUUUUCCUCGAGCAA [A13C A14U] as the variant, how does the nonsense suppression read?
Answer: 0.206

Question: Which nonsense suppression does the source give for CUCUCGGUAGCCCAGUUGGUUUAAGGGGCAAGACUUUAAUUUAUCACUACGAAAUCUUGAGAUCGGGCGUUCGACUGGCCCCCGGGAGAUUUUUUCCUCGAGCAA [A13C C27G C77G] here?
Answer: ≤ 0.026

Question: For CUCUCGGUAGCCCAGUUGGUUUAAGGCGCAAGACUUUAAUUUAUCACUACGAACUCUUGAGAUCGGGCGUUCGAGUCGCCCCCGGGACAUUUUUUCCUCGAGCAA [A13C A54C C75G G88C], which nonsense suppression is on record?
Answer: ≤ 0.026

Question: Which nonsense suppression does the source give for CUCUCGGUAGCCCAGUUGGUUUAAGGGGCAAGACUUUAAUUUAUCACUACGAAAUCUUGAGAUCGGGCGUUCGACUCGCCCCCGGGAGAUUUUUUCCUCGAGCAA [A13C C27G] here?
Answer: ≤ 0.026

Question: Which nonsense suppression does the source give for CUCUCGGUAGCCCUGGUGGUUUAAGGCGCAAGACUUUAAUUUAUCACUACGAAAUCUUGAGAUCGGGCGUUCGACUCGCCCCCGGGAGAUUUUUUCCUCGAGCAA [A13C A14U U16G] here?
Answer: ≤ 0.026

Question: Which nonsense suppression does the source give for CUCUCGGUAGCCCAGUUGGUUUAAGGCGCAAGACUUUAAUUUAUCACUACGAAAUCUUGAGAUCGGGCGUUCGACUCGCCGCCGGGAGAUUUUUUCCUCGAGCAA [A13C C81G] here?
Answer: ≤ 0.026
